This is one part of the list. The full chains were built here from the parent and the listed change. Inactive controls read about 0.05.
B1: TEV protease; numbered along this chain (parent)
chain: MGESLFKGPRDYNPISSSICHLTNESDGHTTSLYGIGFGPFIITNKHLFRRNNGTLVVQSLHGVFKVKDTTTLQQHLVDGRDMIIIRMPKDFPPFPQKLKFREPQREERICLVTTNFQTKSMSSMVSDTSCTFPSGDGIFWKHWIQTKDGQCGSPLVSTRDGFIVGIHSASNFTNTNNYFTSVPKNFMELLTNQEAQQWVSGWRLNADSVLWGGHKVFMVKPEEPFQPVKEATQL

Variants of: B1
Assay: raw area under fraction-flipped curve 0-4 h after induction (AUC4h, not background-subtracted), DNA-recorder readout of cleavage of the substrate (dimensionless); higher = more cleavage of the substrate by the protease variant
Settings: temperature: 34 °C; time window: 0-4 h after rhamnose induction
Description: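 In vivo DNA recorder in E. coli TOP10(DE3) ΔrhaA at 34 °C. Each TEVp single-site mutant (parent TEVp 0) is paired with a single-site variant of the 7-mer TEVs (canonical ENLYFQ|S). The substrate sits between flexible linkers in a Bxb1-sfGFP-TEVs-SsrA fusion, so cleavage stabilises Bxb1 and speeds flipping of a recombination array, read by NGS. The value is the raw area under the fraction-flipped curve over 0-4 h after rhamnose induction (AUC4h), with ≥20 reads per time point. It is not background-subtracted; inactive controls average about 0.047.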
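Also: Bxb1 expression induced with 0.2% (w/v) L-rhamnose at OD600 near 0.5, cultures sampled hourly, flipped fraction per protease–substrate barcode pair counted by paired-end Illumina sequencing.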

## MGESLFKGPRDYNGISSSICHLTNESDGHTTSLYGIGFGPFIITNKHLFRRNNGTLVVQSLHGVFKVKDTTTLQQHLVDGRDMIIIRMPKDFPPFPQKLKFREPQREERICLVTTNFQTKSMSSMVSDTSCTFPSGDGIFWKHWIQTKDGQCGSPLVSTRDGFIVGIHSASNFTNTNNYFTSVPKNFMELLTNQEAQQWVSGWRLNADSVLWGGHKVFMVKPEEPFQPVKEATQL [P14G]
  area with substrate ECLYFQS: 0.107
  area with substrate EELYFQS: 0.13
  area with substrate EFLYFQS: 0.108
  area with substrate EGLYFQS: 0.144
  area with substrate EHLYFQS: 0.139
  area with substrate EILYFQS: 0.113
  area with substrate EKLYFQS: 0.0664
  area with substrate EMLYFQS: 0.104
  area with substrate ERLYFQS: 0.0954
  area with substrate ESLYFQS: 0.105
  area with substrate EWLYFQS: 0.109
  area with substrate EYLYFQS: 0.1

## MGESLFKGPRGYNPISSSICHLTNESDGHTTSLYGIGFGPFIITNKHLFRRNNGTLVVQSLHGVFKVKDTTTLQQHLVDGRDMIIIRMPKDFPPFPQKLKFREPQREERICLVTTNFQTKSMSSMVSDTSCTFPSGDGIFWKHWIQTKDGQCGSPLVSTRDGFIVGIHSASNFTNTNNYFTSVPKNFMELLTNQEAQQWVSGWRLNADSVLWGGHKVFMVKPEEPFQPVKEATQL [D11G]
  area with substrate ECLYFQS: 0.0999
  area with substrate EDLYFQS: 0.112
  area with substrate EELYFQS: 0.115
  area with substrate EFLYFQS: 0.102
  area with substrate EGLYFQS: 0.102
  area with substrate EHLYFQS: 0.103
  area with substrate EILYFQS: 0.0459
  area with substrate EKLYFQS: 0.0987
  area with substrate EMLYFQS: 0.103
  area with substrate EQLYFQS: 0.102
  area with substrate ERLYFQS: 0.108
  area with substrate ESLYFQS: 0.11
  area with substrate EVLYFQS: 0.0996
  area with substrate EYLYFQS: 0.108

## MGESLFKGPRNYNPISSSICHLTNESDGHTTSLYGIGFGPFIITNKHLFRRNNGTLVVQSLHGVFKVKDTTTLQQHLVDGRDMIIIRMPKDFPPFPQKLKFREPQREERICLVTTNFQTKSMSSMVSDTSCTFPSGDGIFWKHWIQTKDGQCGSPLVSTRDGFIVGIHSASNFTNTNNYFTSVPKNFMELLTNQEAQQWVSGWRLNADSVLWGGHKVFMVKPEEPFQPVKEATQL [D11N]
  area with substrate ECLYFQS: 0.0827
  area with substrate EDLYFQS: 0.118
  area with substrate EFLYFQS: 0.132
  area with substrate EGLYFQS: 0.092
  area with substrate EHLYFQS: 0.0948
  area with substrate EILYFQS: 0.0945
  area with substrate EKLYFQS: 0.111
  area with substrate ELLYFQS: 0.0912
  area with substrate EMLYFQS: 0.0941
  area with substrate EQLYFQS: 0.118
  area with substrate ERLYFQS: 0.164
  area with substrate ESLYFQS: 0.083
  area with substrate EVLYFQS: 0.0996
  area with substrate EWLYFQS: 0.0874
  area with substrate EYLYFQS: 0.113

## MGESLFKGPRYYNPISSSICHLTNESDGHTTSLYGIGFGPFIITNKHLFRRNNGTLVVQSLHGVFKVKDTTTLQQHLVDGRDMIIIRMPKDFPPFPQKLKFREPQREERICLVTTNFQTKSMSSMVSDTSCTFPSGDGIFWKHWIQTKDGQCGSPLVSTRDGFIVGIHSASNFTNTNNYFTSVPKNFMELLTNQEAQQWVSGWRLNADSVLWGGHKVFMVKPEEPFQPVKEATQL [D11Y]
  area with substrate ECLYFQS: 0.102
  area with substrate EDLYFQS: 0.11
  area with substrate EELYFQS: 0.108
  area with substrate EGLYFQS: 0.0901
  area with substrate EHLYFQS: 0.0819
  area with substrate EILYFQS: 0.086
  area with substrate EKLYFQS: 0.0867
  area with substrate ELLYFQS: 0.0802
  area with substrate EMLYFQS: 0.0973
  area with substrate EPLYFQS: 0.104
  area with substrate EQLYFQS: 0.135
  area with substrate ERLYFQS: 0.0754
  area with substrate ESLYFQS: 0.107
  area with substrate ETLYFQS: 0.107
  area with substrate EVLYFQS: 0.107
  area with substrate EWLYFQS: 0.0753
  area with substrate EYLYFQS: 0.0156

## MGESLFKGPRDYNPISSSICHLTNESDGHTTSLYGIGFGPTIITNKHLFRRNNGTLVVQSLHGVFKVKDTTTLQQHLVDGRDMIIIRMPKDFPPFPQKLKFREPQREERICLVTTNFQTKSMSSMVSDTSCTFPSGDGIFWKHWIQTKDGQCGSPLVSTRDGFIVGIHSASNFTNTNNYFTSVPKNFMELLTNQEAQQWVSGWRLNADSVLWGGHKVFMVKPEEPFQPVKEATQL [F41T]
  area with substrate EALYFQS: 0.0936
  area with substrate ELLYFQS: 0.077
  area with substrate EMLYFQS: 0.116
  area with substrate EPLYFQS: 0.0957
  area with substrate ERLYFQS: 0.0847
  area with substrate ESLYFQS: 0.0955
  area with substrate EVLYFQS: 0.0853
  area with substrate EYLYFQS: 0.0916

## MDESLFKGPRDYNPISSSICHLTNESDGHTTSLYGIGFGPFIITNKHLFRRNNGTLVVQSLHGVFKVKDTTTLQQHLVDGRDMIIIRMPKDFPPFPQKLKFREPQREERICLVTTNFQTKSMSSMVSDTSCTFPSGDGIFWKHWIQTKDGQCGSPLVSTRDGFIVGIHSASNFTNTNNYFTSVPKNFMELLTNQEAQQWVSGWRLNADSVLWGGHKVFMVKPEEPFQPVKEATQL [G2D]
  area with substrate ECLYFQS: 0.0997
  area with substrate EDLYFQS: 0.111
  area with substrate EELYFQS: 0.0935
  area with substrate EGLYFQS: 0.0947
  area with substrate EHLYFQS: 0.13
  area with substrate EILYFQS: 0.09
  area with substrate EKLYFQS: 0.104
  area with substrate ELLYFQS: 0.0898
  area with substrate EMLYFQS: 0.0895
  area with substrate EPLYFQS: 0.115
  area with substrate EQLYFQS: 0.0859
  area with substrate ERLYFQS: 0.11
  area with substrate ESLYFQS: 0.0988
  area with substrate ETLYFQS: 0.0768
  area with substrate EWLYFQS: 0.0723
  area with substrate EYLYFQS: 0.0867

## MGESLFKGPEDYNPISSSICHLTNESDGHTTSLYGIGFGPFIITNKHLFRRNNGTLVVQSLHGVFKVKDTTTLQQHLVDGRDMIIIRMPKDFPPFPQKLKFREPQREERICLVTTNFQTKSMSSMVSDTSCTFPSGDGIFWKHWIQTKDGQCGSPLVSTRDGFIVGIHSASNFTNTNNYFTSVPKNFMELLTNQEAQQWVSGWRLNADSVLWGGHKVFMVKPEEPFQPVKEATQL [R10E]
  area with substrate ECLYFQS: 0.0887
  area with substrate EDLYFQS: 0.115
  area with substrate EFLYFQS: 0.0909
  area with substrate EILYFQS: 0.06
  area with substrate EKLYFQS: 0.101
  area with substrate ELLYFQS: 0.085
  area with substrate EMLYFQS: 0.154
  area with substrate ERLYFQS: 0.0798
  area with substrate ESLYFQS: 0.0902
  area with substrate ETLYFQS: 0.0977
  area with substrate EVLYFQS: 0.0898
  area with substrate EWLYFQS: 0.0718

## MGESLFKGPQDYNPISSSICHLTNESDGHTTSLYGIGFGPFIITNKHLFRRNNGTLVVQSLHGVFKVKDTTTLQQHLVDGRDMIIIRMPKDFPPFPQKLKFREPQREERICLVTTNFQTKSMSSMVSDTSCTFPSGDGIFWKHWIQTKDGQCGSPLVSTRDGFIVGIHSASNFTNTNNYFTSVPKNFMELLTNQEAQQWVSGWRLNADSVLWGGHKVFMVKPEEPFQPVKEATQL [R10Q]
  area with substrate ECLYFQS: 0.111
  area with substrate EDLYFQS: 0.124
  area with substrate EELYFQS: 0.0914
  area with substrate EFLYFQS: 0.0833
  area with substrate EGLYFQS: 0.0631
  area with substrate EHLYFQS: 0.111
  area with substrate EILYFQS: 0.0967
  area with substrate ELLYFQS: 0.0997
  area with substrate EMLYFQS: 0.131
  area with substrate ERLYFQS: 0.109
  area with substrate ESLYFQS: 0.124
  area with substrate ETLYFQS: 0.137
  area with substrate EVLYFQS: 0.11
  area with substrate EWLYFQS: 0.103
  area with substrate EYLYFQS: 0.103
